# Source: the supplement of paper PMC8728848
# Some of the results follow.
# B1: NcCVNHO (Neurospora crassa), Q7S6U4 (protein)
# chain: MSFHVTAEDARIEVRDNRTILFARLRREDGEWNDASYELDQIIGNNDGHFQWGGQNFTETAEDIRFHPKEGAAEQPILRARLRDCNGEFHDRDVNLTEIVENVNGEFQAKF
# What was measured:
# Assay in all cases: glycan array binding signal (z-score within array); higher = stronger binding
# Settings in all cases: glycan notation: IUPAC condensed, linker removed
# [1] = biological target: Neu5Ac(a2-3)Gal(b1-4)[Fuc(a1-3)]GlcNAc(b1-3)Gal(b1-4)GlcNAc
# Summary of the method: (§1)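 Negative Z-scores can be read as non-binding. The Z-score is calculated within each array and then averaged across arrays of one protein sequence at different concentrations or buffers and across linkers. Arrays, 3228 in all, were curated from the Consortium for Functional Glycomics database and kept only where the protein sequence was available.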
# [2] = biological target: Neu5Ac(a2-3)Gal(b1-4)[Fuc(a1-3)]GlcNAc(b1-3)Gal(b1-4)[Fuc(a1-3)]GlcNAc(b1-3)Gal(b1-4)[Fuc(a1-3)]GlcNAc
# Summary of the method: as §1
# [3] = biological target: Neu5Ac(a2-3)Gal(b1-4)[Fuc(a1-3)]GlcNAc(b1-6)[Gal(b1-3)]GalNAc
# Summary of the method: as §1
# [4] = biological target: Neu5Ac(a2-3)Gal(b1-4)[Fuc(a1-3)]GlcNAc6S
# Summary of the method: as §1
# [5] = biological target: Neu5Ac(a2-3)Gal6S(b1-4)GlcNAc
# Summary of the method: as §1
# [6] = biological target: Neu5Ac(a2-3)Gal6S(b1-4)[Fuc(a1-3)]GlcNAc
# Summary of the method: as §1
# Neu5Ac(a2-3)GalNAc = biological target: Neu5Ac(a2-3)GalNAc
# Summary of the method: as §1
# [7] = biological target: Neu5Ac(a2-3)GalNAc(b1-4)GlcNAc
# Summary of the method: as §1
# [8] = biological target: Neu5Ac(a2-3)[GalNAc(b1-4)]Gal(b1-4)Glc
# Summary of the method: as §1
# [9] = biological target: Neu5Ac(a2-3)[GalNAc(b1-4)]Gal(b1-4)GlcNAc
# Summary of the method: as §1
# [10] = biological target: Neu5Ac(a2-3)[Neu5Ac(a2-6)]GalNAc
# Summary of the method: as §1
# Neu5Ac(a2-6)Gal = biological target: Neu5Ac(a2-6)Gal
# Summary of the method: as §1
# Neu5Ac(a2-6)Gal(b1-4)Glc = biological target: Neu5Ac(a2-6)Gal(b1-4)Glc
# Summary of the method: as §1
# [11] = biological target: Neu5Ac(a2-6)Gal(b1-4)GlcNAc
# Summary of the method: as §1
# [12] = biological target: Neu5Ac(a2-6)Gal(b1-4)GlcNAc(b1-2)Man(a1-3)[Gal(b1-4)GlcNAc(b1-2)Man(a1-6)]Man(b1-4)GlcNAc(b1-4)GlcNAc
# Summary of the method: as §1
# [13] = biological target: Neu5Ac(a2-6)Gal(b1-4)GlcNAc(b1-2)Man(a1-3)[GlcNAc(b1-2)Man(a1-6)]Man(b1-4)GlcNAc(b1-4)GlcNAc
# Summary of the method: as §1
# [14] = biological target: Neu5Ac(a2-6)Gal(b1-4)GlcNAc(b1-2)Man(a1-3)[GlcNAc(b1-2)Man(b1-4)GlcNAc(b1-2)Man(a1-6)]Man(b1-4)GlcNAc(b1-4)GlcNAc
# Summary of the method: as §1
# [15] = biological target: Neu5Ac(a2-6)Gal(b1-4)GlcNAc(b1-2)Man(a1-3)[Neu5Ac(a2-6)Gal(b1-4)GlcNAc(b1-2)Man(a1-6)]Man(b1-4)GlcNAc(b1-4)GlcNAc
# Summary of the method: as §1
# [16] = biological target: Neu5Ac(a2-6)Gal(b1-4)GlcNAc(b1-2)Man(a1-6)[Gal(b1-4)GlcNAc(b1-2)Man(a1-3)]Man(b1-4)GlcNAc(b1-4)GlcNAc
# Summary of the method: as §1
# [17] = biological target: Neu5Ac(a2-6)Gal(b1-4)GlcNAc(b1-2)Man(a1-6)[GlcNAc(b1-2)Man(a1-3)]Man(b1-4)GlcNAc(b1-4)GlcNAc
# Summary of the method: as §1
# [18] = biological target: Neu5Ac(a2-6)Gal(b1-4)GlcNAc(b1-3)Gal(b1-4)GlcNAc
# Summary of the method: as §1
# [19] = biological target: Neu5Ac(a2-6)Gal(b1-4)GlcNAc(b1-3)Gal(b1-4)[Fuc(a1-3)]GlcNAc(b1-3)Gal(b1-4)[Fuc(a1-3)]GlcNAc
# Summary of the method: as §1
# [20] = biological target: Neu5Ac(a2-6)Gal(b1-4)GlcNAc6S
# Summary of the method: as §1
# Neu5Ac(a2-6)GalNAc = biological target: Neu5Ac(a2-6)GalNAc
# Summary of the method: as §1
# [21] = biological target: Neu5Ac(a2-6)GalNAc(b1-4)GlcNAc
# Summary of the method: as §1
# Neu5Ac(a2-8)Neu5Ac = biological target: Neu5Ac(a2-8)Neu5Ac
# Summary of the method: as §1
# [22] = biological target: Neu5Ac(a2-8)Neu5Ac(a2-3)Gal(b1-4)Glc
# Summary of the method: as §1
# [23] = biological target: Neu5Ac(a2-8)Neu5Ac(a2-3)[GalNAc(b1-4)]Gal(b1-4)Glc
# Summary of the method: as §1
# [24] = biological target: Neu5Ac(a2-8)Neu5Ac(a2-8)Neu5Ac
# Summary of the method: as §1
# [25] = biological target: Neu5Ac(a2-8)Neu5Ac(a2-8)Neu5Ac(a2-3)Gal(b1-4)Glc
# Summary of the method: as §1
# [26] = biological target: Neu5Ac(a2-8)Neu5Ac(a2-8)Neu5Ac(a2-3)[GalNAc(b1-4)]Gal(b1-4)Glc
# Summary of the method: as §1
# [27] = biological target: Neu5Ac(a2-8)Neu5Ac(a2-8)Neu5Ac(a2-8)Neu5Ac(a2-3)[GalNAc(b1-4)]Gal(b1-4)Glc
# Summary of the method: as §1
# Neu5Ac(b1-6)GalNAc = biological target: Neu5Ac(b1-6)GalNAc
# Summary of the method: as §1
# [28] = biological target: Neu5Ac(b2-6)Gal(b1-4)GlcNAc
# Summary of the method: as §1
# Neu5Ac(b2-6)GalNAc = biological target: Neu5Ac(b2-6)GalNAc
# Summary of the method: as §1
# [29] = biological target: Neu5Ac9Ac(a2-6)Gal(b1-4)GlcNAc
# Summary of the method: as §1
# [30] = biological target: Neu5Gc(a2-3)Gal(b1-3)GlcNAc
# Summary of the method: as §1
# [31] = biological target: Neu5Gc(a2-3)Gal(b1-3)[Fuc(a1-4)]GlcNAc
# Summary of the method: as §1
# Neu5Gc(a2-3)Gal(b1-4)Glc = biological target: Neu5Gc(a2-3)Gal(b1-4)Glc
# Summary of the method: as §1
# [32] = biological target: Neu5Gc(a2-3)Gal(b1-4)GlcNAc
# Summary of the method: as §1
# [33] = biological target: Neu5Gc(a2-3)Gal(b1-4)[Fuc(a1-3)]GlcNAc
# Summary of the method: as §1
# [34] = biological target: Neu5Gc(a2-3)Gal(b1-4)[Fuc(a1-4)]GlcNAc
# Summary of the method: as §1
# [35] = biological target: Neu5Gc(a2-6)Gal(b1-4)GlcNAc
# Summary of the method: as §1
# Neu5Gc(a2-6)GalNAc = biological target: Neu5Gc(a2-6)GalNAc
# Summary of the method: as §1
# [36] = biological target: Neu5Gc(b2-6)Gal(b1-4)GlcNAc
# Summary of the method: as §1
binder,measurement,setting,value
B1,glycan array binding signal (z-score),[1],-0.206
same,glycan array binding signal (z-score),[2],-0.194
same,glycan array binding signal (z-score),[3],-0.172
same,glycan array binding signal (z-score),[4],-0.231
same,glycan array binding signal (z-score),[5],-0.237
same,glycan array binding signal (z-score),[6],-0.229
same,glycan array binding signal (z-score),Neu5Ac(a2-3)GalNAc,-0.238
same,glycan array binding signal (z-score),[7],-0.239
same,glycan array binding signal (z-score),[8],-0.249
same,glycan array binding signal (z-score),[9],-0.236
same,glycan array binding signal (z-score),[10],-0.242
same,glycan array binding signal (z-score),Neu5Ac(a2-6)Gal,-0.265
same,glycan array binding signal (z-score),Neu5Ac(a2-6)Gal(b1-4)Glc,-0.227
same,glycan array binding signal (z-score),[11],-0.209
same,glycan array binding signal (z-score),[12],-0.192
same,glycan array binding signal (z-score),[13],-0.194
same,glycan array binding signal (z-score),[14],-0.154
same,glycan array binding signal (z-score),[15],-0.16
same,glycan array binding signal (z-score),[16],-0.156
same,glycan array binding signal (z-score),[17],-0.166
same,glycan array binding signal (z-score),[18],-0.232
same,glycan array binding signal (z-score),[19],-0.171
same,glycan array binding signal (z-score),[20],-0.131
same,glycan array binding signal (z-score),Neu5Ac(a2-6)GalNAc,-0.229
same,glycan array binding signal (z-score),[21],-0.233
same,glycan array binding signal (z-score),Neu5Ac(a2-8)Neu5Ac,-0.207
same,glycan array binding signal (z-score),[22],-0.192
same,glycan array binding signal (z-score),[23],-0.222
same,glycan array binding signal (z-score),[24],-0.242
same,glycan array binding signal (z-score),[25],-0.241
same,glycan array binding signal (z-score),[26],-0.24
same,glycan array binding signal (z-score),[27],-0.228
same,glycan array binding signal (z-score),Neu5Ac(b1-6)GalNAc,-0.301
same,glycan array binding signal (z-score),[28],-0.253
same,glycan array binding signal (z-score),Neu5Ac(b2-6)GalNAc,-0.194
same,glycan array binding signal (z-score),[29],-0.232
same,glycan array binding signal (z-score),[30],-0.241
same,glycan array binding signal (z-score),[31],-0.234
same,glycan array binding signal (z-score),Neu5Gc(a2-3)Gal(b1-4)Glc,-0.22
same,glycan array binding signal (z-score),[32],-0.235
same,glycan array binding signal (z-score),[33],-0.26
same,glycan array binding signal (z-score),[34],-0.153
same,glycan array binding signal (z-score),[35],-0.243
same,glycan array binding signal (z-score),Neu5Gc(a2-6)GalNAc,-0.19
same,glycan array binding signal (z-score),[36],-0.169
